{
  "source": "the BET-seq Pho4 binding data (Le et al. 2018)",
  "note": "Some of the results follow. Values were computed here from the reads of four pooled replicates and scatter widely.",
  "data": [
    {"target": "T1, Pho4 (S. cerevisiae) (UniProt P07270)", "T1 sequence": "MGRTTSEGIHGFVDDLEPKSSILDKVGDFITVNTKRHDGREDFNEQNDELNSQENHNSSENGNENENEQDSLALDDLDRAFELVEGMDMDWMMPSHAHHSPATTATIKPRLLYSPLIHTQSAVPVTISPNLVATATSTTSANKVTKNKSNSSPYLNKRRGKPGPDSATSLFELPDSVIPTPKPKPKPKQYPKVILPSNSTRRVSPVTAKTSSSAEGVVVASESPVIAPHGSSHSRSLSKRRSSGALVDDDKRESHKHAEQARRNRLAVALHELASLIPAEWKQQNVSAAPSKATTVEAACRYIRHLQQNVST", "experiment": "relative binding free energy (BET-seq); higher = weaker binding", "settings": "reference: library average", "units": {"relative binding free energy": "kJ/mol"}, "values": [
      {"sequence": "GGTGTCACGTGAGAAG", "relative binding free energy": 0.962},
      {"sequence": "GATGTCACGTGAGTGA", "relative binding free energy": 0.544},
      {"sequence": "GGGCACACGTGTGGTT", "relative binding free energy": 0.167},
      {"sequence": "GACGGCACGTGTTAGT", "relative binding free energy": -0.167},
      {"sequence": "ATGGTCACGTGCTGCG", "relative binding free energy": 0.502},
      {"sequence": "GTTCGCACGTGGTTTA", "relative binding free energy": -0.251},
      {"sequence": "CATATCACGTGGGTGG", "relative binding free energy": -0.377},
      {"sequence": "TTTTTCACGTGTTTAC", "relative binding free energy": 1.13},
      {"sequence": "TACATCACGTGAGTGT", "relative binding free energy": 1.38},
      {"sequence": "GAAGTCACGTGTTTGG", "relative binding free energy": 0.92},
      {"sequence": "TTATGCACGTGAGAAA", "relative binding free energy": 1.3},
      {"sequence": "GTTGTCACGTGATTGA", "relative binding free energy": 0.586},
      {"sequence": "GGGTGCACGTGGAGTG", "relative binding free energy": -0.0418},
      {"sequence": "TTGTTCACGTGGTTTA", "relative binding free energy": 1.26},
      {"sequence": "TCGATCACGTGGGCGG", "relative binding free energy": 0.586},
      {"sequence": "CGTGACACGTGGGTTA", "relative binding free energy": -0.711},
      {"sequence": "AAGGACACGTGAGGTA", "relative binding free energy": 0.92},
      {"sequence": "TGGATCACGTGGCGGA", "relative binding free energy": 0.879},
      {"sequence": "GTTTACACGTGTGATT", "relative binding free energy": 1.42},
      {"sequence": "TAGATCACGTGTGTCG", "relative binding free energy": 0.795},
      {"sequence": "TGTGTCACGTGACATT", "relative binding free energy": 1.21},
      {"sequence": "CCGGTCACGTGAGGTG", "relative binding free energy": 1.21},
      {"sequence": "GTGGGCACGTGGTCTT", "relative binding free energy": -0.251},
      {"sequence": "CGTCTCACGTGTGTAG", "relative binding free energy": 1.38},
      {"sequence": "GGGGTCACGTGAGTAT", "relative binding free energy": 1.8},
      {"sequence": "CGTGTCACGTGATATG", "relative binding free energy": 0.669},
      {"sequence": "TGAATCACGTGTTGTA", "relative binding free energy": 0.92},
      {"sequence": "TAGTACACGTGTTAGT", "relative binding free energy": 0.377},
      {"sequence": "ATTTGCACGTGAAATG", "relative binding free energy": 1.26},
      {"sequence": "GATTACACGTGCTGGG", "relative binding free energy": 0.502},
      {"sequence": "GGAATCACGTGGTGAG", "relative binding free energy": 0.711},
      {"sequence": "CGGTTCACGTGTGAGG", "relative binding free energy": 1.42},
      {"sequence": "ACGTGCACGTGTTTTG", "relative binding free energy": -0.586},
      {"sequence": "AATGGCACGTGAGCTG", "relative binding free energy": 0.837},
      {"sequence": "GGAAGCACGTGTAAGG", "relative binding free energy": 0.0837},
      {"sequence": "ATAATCACGTGGTTAG", "relative binding free energy": 0.167},
      {"sequence": "AATGTCACGTGAGGAA", "relative binding free energy": 0.962},
      {"sequence": "ACTTGCACGTGTAGTT", "relative binding free energy": -0.0837},
      {"sequence": "GGCGTCACGTGGAGCG", "relative binding free energy": -0.251},
      {"sequence": "TTCTACACGTGCGGTT", "relative binding free energy": 0.92},
      {"sequence": "TTGCACACGTGTGGAT", "relative binding free energy": 0},
      {"sequence": "TTGTTCACGTGATTAG", "relative binding free energy": 1.3},
      {"sequence": "AAGTGCACGTGTCGGT", "relative binding free energy": -0.0837},
      {"sequence": "AAAATCACGTGATTGG", "relative binding free energy": 1.46},
      {"sequence": "TGTGCCACGTGCAGGG", "relative binding free energy": -1.09},
      {"sequence": "GTCAGCACGTGGGGAG", "relative binding free energy": -0.46},
      {"sequence": "TTTGCCACGTGGGCTA", "relative binding free energy": -1},
      {"sequence": "GGGTGCACGTGGAACG", "relative binding free energy": -0.0418},
      {"sequence": "GGTTTCACGTGGCGCT", "relative binding free energy": 0.837},
      {"sequence": "TGCTTCACGTGGCGTT", "relative binding free energy": 0.962},
      {"sequence": "ATTTGCACGTGTAGAA", "relative binding free energy": -0.167},
      {"sequence": "GTGGGCACGTGCGGGG", "relative binding free energy": -0.418},
      {"sequence": "TCTTACACGTGTTTGG", "relative binding free energy": 0.544},
      {"sequence": "AAGGACACGTGGGCGC", "relative binding free energy": 0.209},
      {"sequence": "TGACGCACGTGTGGGG", "relative binding free energy": -0.879},
      {"sequence": "TAGTGCACGTGCGTGC", "relative binding free energy": -0.502},
      {"sequence": "TAGGGCACGTGTATGA", "relative binding free energy": -0.293},
      {"sequence": "CTTGACACGTGAGGGG", "relative binding free energy": 0.962},
      {"sequence": "AGGAGCACGTGTAGTG", "relative binding free energy": -0.126},
      {"sequence": "TTAATCACGTGCTTGG", "relative binding free energy": -0.0418},
      {"sequence": "ATTAACACGTGTAATG", "relative binding free energy": 0.209},
      {"sequence": "TTGCGCACGTGCTTGG", "relative binding free energy": -0.753},
      {"sequence": "TGTCTCACGTGTTTGC", "relative binding free energy": 0.628},
      {"sequence": "TCGGCCACGTGAGGGT", "relative binding free energy": 0.46},
      {"sequence": "TATACCACGTGTGGGG", "relative binding free energy": 0.377},
      {"sequence": "GTGAACACGTGTGGAG", "relative binding free energy": 0.711},
      {"sequence": "TTAGGCACGTGAATAA", "relative binding free energy": 0.502},
      {"sequence": "GGTGTCACGTGTTAGT", "relative binding free energy": 0.544},
      {"sequence": "GGTGGCACGTGAGTGG", "relative binding free energy": 1.05},
      {"sequence": "GATGGCACGTGAGAAT", "relative binding free energy": 0.669},
      {"sequence": "TGATACACGTGGATGG", "relative binding free energy": -0.0837},
      {"sequence": "TATGTCACGTGTATTG", "relative binding free energy": 0.0418},
      {"sequence": "CGTGGCACGTGATGAG", "relative binding free energy": -0.0837},
      {"sequence": "TTTTACACGTGTGCGA", "relative binding free energy": 0.46},
      {"sequence": "CGTTTCACGTGGGGGA", "relative binding free energy": 1},
      {"sequence": "TTAGGCACGTGCTGCT", "relative binding free energy": -1.09},
      {"sequence": "TAAGACACGTGAGAGG", "relative binding free energy": 0.795},
      {"sequence": "GTGAACACGTGGTGTT", "relative binding free energy": 0.167},
      {"sequence": "AGATGCACGTGCAGTT", "relative binding free energy": 0},
      {"sequence": "GTTGTCACGTGACGGA", "relative binding free energy": 0.0837},
      {"sequence": "TTTGACACGTGAGTTA", "relative binding free energy": 0.669},
      {"sequence": "ACGATCACGTGGGAGG", "relative binding free energy": 0.167},
      {"sequence": "GTGTACACGTGTGTTT", "relative binding free energy": 0.502},
      {"sequence": "TAGTGCACGTGCGATG", "relative binding free energy": -0.628},
      {"sequence": "TTTAACACGTGGGTTA", "relative binding free energy": -0.251},
      {"sequence": "AAGAACACGTGATGGG", "relative binding free energy": 0.293},
      {"sequence": "GTGGGCACGTGCCGGA", "relative binding free energy": -1.17},
      {"sequence": "TATTTCACGTGAGTAT", "relative binding free energy": 1.63},
      {"sequence": "AAAGTCACGTGAAGGT", "relative binding free energy": 0.544},
      {"sequence": "CGTGTCACGTGTGCGG", "relative binding free energy": 0.502},
      {"sequence": "AGGTGCACGTGTCTGA", "relative binding free energy": -0.293},
      {"sequence": "ACCGTCACGTGTGGGG", "relative binding free energy": -0.0418},
      {"sequence": "ATCATCACGTGTTCTG", "relative binding free energy": 1.13},
      {"sequence": "CGTCGCACGTGGAGTG", "relative binding free energy": -0.335},
      {"sequence": "GGTCACACGTGCAGGG", "relative binding free energy": 0},
      {"sequence": "TGTAGCACGTGGCGGC", "relative binding free energy": -0.711},
      {"sequence": "CAGGTCACGTGTGTGA", "relative binding free energy": 1},
      {"sequence": "TGACTCACGTGATGGT", "relative binding free energy": 0.753},
      {"sequence": "AGGGTCACGTGCTGTA", "relative binding free energy": -0.251},
      {"sequence": "GGTGTCACGTGTCTCT", "relative binding free energy": 0.502},
      {"sequence": "TAGTGCACGTGACTGG", "relative binding free energy": 0.335},
      {"sequence": "AGGTTCACGTGGGTTA", "relative binding free energy": 0.92},
      {"sequence": "GGAGGCACGTGTGGCC", "relative binding free energy": -0.586},
      {"sequence": "CTGGTCACGTGTGTTG", "relative binding free energy": 0.251},
      {"sequence": "TTGATCACGTGGGAAG", "relative binding free energy": 0.586},
      {"sequence": "CAAGGCACGTGGGAGT", "relative binding free energy": -0.753},
      {"sequence": "TAATACACGTGAAGTT", "relative binding free energy": 1.3},
      {"sequence": "TCGTGCACGTGATTGA", "relative binding free energy": 1},
      {"sequence": "TTTGTCACGTGCAGGA", "relative binding free energy": 0.837},
      {"sequence": "GGATTCACGTGCTGAG", "relative binding free energy": 1.26},
      {"sequence": "AAAGGCACGTGCGAGT", "relative binding free energy": -0.335},
      {"sequence": "AAGTGCACGTGCGGCT", "relative binding free energy": -0.502},
      {"sequence": "TTTGACACGTGATTTG", "relative binding free energy": 1},
      {"sequence": "CGGTTCACGTGGACTG", "relative binding free energy": 1.38},
      {"sequence": "TGTCTCACGTGCATTT", "relative binding free energy": 1.13}
    ]}
  ]
}
